Where a chain is given by its changes, count along the chain named. This is one part of the list.

First the molecules themselves.
B1: AGUCCUG (DNA:RNA)
RNA: GGGAGACCGGAAUUCAGAUUGUCCAGUCCUGUUAAAUCCCGUCGUAGCCACCA
DNA 1: CAATCTGAATTCCGGTCTCCC
DNA 2: TGGTGGCTACGACGGGATT
B2: UCGCCAG (DNA:RNA)
RNA: B1 RNA with A25U, G26C, U27G, U30A
DNA 1: CAATCTGAATTCCGGTCTCCC
DNA 2: TGGTGGCTACGACGGGATT
B3: UCGCGCU (DNA:RNA)
RNA: B1 RNA with A25U, G26C, U27G, C29G, U30C, G31U
DNA 1: CAATCTGAATTCCGGTCTCCC
DNA 2: TGGTGGCTACGACGGGATT
B4: AGCCACU (DNA:RNA)
RNA: B1 RNA with U27C, C29A, U30C, G31U
DNA 1: CAATCTGAATTCCGGTCTCCC
DNA 2: TGGTGGCTACGACGGGATT
B5: UUAUUUC (DNA:RNA)
RNA: B1 RNA with A25U, G26U, U27A, C28U, C29U, G31C
DNA 1: CAATCTGAATTCCGGTCTCCC
DNA 2: TGGTGGCTACGACGGGATT
B6: GAAUAGU (DNA:RNA)
RNA: GGGAGACCGGAAUUCAGAUUGUCCGAAUAGUUUAAAUCCCGUCGUAGCCACCA
DNA 1: CAATCTGAATTCCGGTCTCCC
DNA 2: TGGTGGCTACGACGGGATT
B7: AUGCAAU (DNA:RNA)
RNA: B1 RNA with G26U, U27G, C29A, U30A, G31U
DNA 1: CAATCTGAATTCCGGTCTCCC
DNA 2: TGGTGGCTACGACGGGATT
B8: GACUCAC (DNA:RNA)
RNA: B6 RNA with A27C, A29C, G30A, U31C
DNA 1: CAATCTGAATTCCGGTCTCCC
DNA 2: TGGTGGCTACGACGGGATT
B9: AAAGCCG (DNA:RNA)
RNA: B1 RNA with G26A, U27A, C28G, U30C
DNA 1: CAATCTGAATTCCGGTCTCCC
DNA 2: TGGTGGCTACGACGGGATT
B10: CCAUAAC (DNA:RNA)
RNA: B6 RNA with G25C, A26C, G30A, U31C
DNA 1: CAATCTGAATTCCGGTCTCCC
DNA 2: TGGTGGCTACGACGGGATT
B11: CUUUCCA (DNA:RNA)
RNA: B1 RNA with A25C, G26U, C28U, U30C, G31A
DNA 1: CAATCTGAATTCCGGTCTCCC
DNA 2: TGGTGGCTACGACGGGATT
B12: AAACUCA (DNA:RNA)
RNA: B1 RNA with G26A, U27A, C29U, U30C, G31A
DNA 1: CAATCTGAATTCCGGTCTCCC
DNA 2: TGGTGGCTACGACGGGATT
B13: AUGACGC (DNA:RNA)
RNA: B1 RNA with G26U, U27G, C28A, U30G, G31C
DNA 1: CAATCTGAATTCCGGTCTCCC
DNA 2: TGGTGGCTACGACGGGATT
B14: GUAUUUC (DNA:RNA)
RNA: B6 RNA with A26U, A29U, G30U, U31C
DNA 1: CAATCTGAATTCCGGTCTCCC
DNA 2: TGGTGGCTACGACGGGATT
B15: UACGCAC (DNA:RNA)
RNA: B1 RNA with A25U, G26A, U27C, C28G, U30A, G31C
DNA 1: CAATCTGAATTCCGGTCTCCC
DNA 2: TGGTGGCTACGACGGGATT
B16: CGGAUCG (DNA:RNA)
RNA: B1 RNA with A25C, U27G, C28A, C29U, U30C
DNA 1: CAATCTGAATTCCGGTCTCCC
DNA 2: TGGTGGCTACGACGGGATT
B17: CAUCUCC (DNA:RNA)
RNA: B1 RNA with A25C, G26A, C29U, U30C, G31C
DNA 1: CAATCTGAATTCCGGTCTCCC
DNA 2: TGGTGGCTACGACGGGATT
B18: AAACCUG (DNA:RNA)
RNA: B1 RNA with G26A, U27A
DNA 1: CAATCTGAATTCCGGTCTCCC
DNA 2: TGGTGGCTACGACGGGATT
B19: CCUGAGU (DNA:RNA)
RNA: B6 RNA with G25C, A26C, A27U, U28G
DNA 1: CAATCTGAATTCCGGTCTCCC
DNA 2: TGGTGGCTACGACGGGATT
B20: AGAGAGC (DNA:RNA)
RNA: B6 RNA with G25A, A26G, U28G, U31C
DNA 1: CAATCTGAATTCCGGTCTCCC
DNA 2: TGGTGGCTACGACGGGATT

The target of the experiment is T1, RBFOX1 RRM (Homo sapiens, UniProt Q9NWB1 109-208).
T1 sequence: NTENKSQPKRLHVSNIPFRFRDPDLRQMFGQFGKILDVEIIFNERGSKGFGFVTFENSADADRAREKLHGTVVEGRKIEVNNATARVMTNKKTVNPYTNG
Description: EMSA; HiTS-Eq, 1 nM pool, 10 min; buffer printed only for the single-RNA assays: 10 mM Tris pH 7.5, 150 mM NaCl, 3.4 mM EDTA, 0.001% NP-40, 30 C. The settings on record: tags: His6 N-terminal (pET28a); label: 5' 32P. The method, boiled down: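 Purified RbFox RRM (wild type or mutant) was equilibrated for 10 min in 50 µL with 1 nM of a 5′-radiolabelled pool of RNA with 7 randomized nucleotides, its flanks annealed to DNA oligonucleotides, across increasing protein concentrations. Free RNA was separated by 8% native PAGE, excised, reverse-transcribed, PCR-barcoded and sequenced on an Illumina HiSeq 2500. Relative association constants came from read-count changes of each variant against the control reaction, normalised to the cognate motif.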
(A gel shift assay detects complexes by their altered migration in electrophoresis.)
In the case of B1, the binding signal was 0.0138 KA relative to UGCAUGU.

For the molecule B2, the binding signal is 0.0133 KA relative to UGCAUGU.

B3: the binding signal was 0.0113 KA relative to UGCAUGU.

Regarding B4, the binding signal is 0.00443 KA relative to UGCAUGU.

Take B5: the binding signal was 0.00881 KA relative to UGCAUGU.

Take B6: the binding signal is 0.0102 KA relative to UGCAUGU.

On to B7, for which the binding signal is 0.00453 KA relative to UGCAUGU.

With B8, the binding signal was 0.00768 KA relative to UGCAUGU.

On to B9, for which the binding signal was 0.00202 KA relative to UGCAUGU.

As for B10, the binding signal is 0.00123 KA relative to UGCAUGU.

As for B11, the binding signal is 0.00311 KA relative to UGCAUGU.

In the case of B12, the binding signal was 0.000673 KA relative to UGCAUGU.

As to B13, the binding signal was 0.00673 KA relative to UGCAUGU.

With B14, the binding signal was 0.00965 KA relative to UGCAUGU.

For B15, the binding signal is 0.00932 KA relative to UGCAUGU.

B16: the binding signal is 0.0358 KA relative to UGCAUGU.

Take B17: the binding signal was 0.00467 KA relative to UGCAUGU.

With B18, the binding signal was 0.00336 KA relative to UGCAUGU.

As to B19, the binding signal is 0.01 KA relative to UGCAUGU.

Consider B20, for which the binding signal was 0.00925 KA relative to UGCAUGU.

The record behind these values is paper PMC9911399, “Two distinct binding modes provide the RNA-binding protein RbFox with extraordinary sequence specificity”.
